# The supplement of paper PMC8728848
# The list shows a part of the results.
# B1: GS13686A-pdi-553-26-553 (Parabacteroides distasonis) (protein)
# chain: NENPDKPTDDVNYNMNEPRLASTLRGGLIIEGNVEQRLKPLQIDFYSQMTVDGGGWGTKNYIQDDEWNNLVWEEYLKQIASINIVIRSLTEKDKDAYANTIAFARIWRVYVHTLAADKFGPMPFPAYEIVEANPPYKSLKDIYDEYFRELDAAINGFNDSAQPIFSDAGIDLIYKNDVSKWKRFANSLRLRLAVRLTEVDQEKCIAEANAAISSPAGLISDKADNAYMPPKADGSWGQDYNYTMFQITWSGPICMSKSVEKLVTNIGGVAWPQGVVNQTSGVAVSSVHPEKVDPRAPKIFQPGIENGDWKGLVYGPKAEEANTGIYQSKQCAELGFIIKDGYPYKSRPYDLFLSEEVHFLKAELYARGFIAGDAKSEYEAGVRASFATWGVTSEVDDYLTSTEKNEAGTSARYDDQQGAGNTALEKIITQKYIAGIPDLAQEGWNDKRRLNLPRLDVAVYRDQAVYNNNDKDILKSANFIKRMRYPTKESLINATEYEKGKSMLGGKGDIVSTPLWWDKNSNYCTSSK
# Columns and labels:
# Experiment in all cases: glycan array binding signal (z-score within array); higher = stronger binding
# Details in all cases: glycan notation: IUPAC condensed, linker removed
# [1] = target: Fuc(a1-2)Gal
# Summary of the method: (§1)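 Columns mapping to the same glycan were averaged after glycan names were converted to IUPAC-condensed notation. The data come from 3228 arrays in the Consortium for Functional Glycomics database, limited to those with an available protein sequence. Binding is reported as a within-array Z-score averaged across arrays of one protein sequence and across linkers.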
# [2] = target: Fuc(a1-2)Gal(b1-3)GalNAc
# Summary of the method: as §1
# [3] = target: Fuc(a1-2)Gal(b1-3)GalNAc(a1-3)[Fuc(a1-2)]Gal(b1-4)Glc
# Summary of the method: as §1
# [4] = target: Fuc(a1-2)Gal(b1-3)GalNAc(a1-3)[Fuc(a1-2)]Gal(b1-4)GlcNAc
# Summary of the method: as §1
# [5] = target: Fuc(a1-2)Gal(b1-3)GalNAc(b1-3)Gal
# Summary of the method: as §1
# [6] = target: Fuc(a1-2)Gal(b1-3)GalNAc(b1-3)Gal(a1-4)Gal(b1-4)Glc
# Summary of the method: as §1
# [7] = target: Fuc(a1-2)Gal(b1-3)GalNAc(b1-4)[Neu5Ac(a2-3)]Gal(b1-4)Glc
# Summary of the method: as §1
# [8] = target: Fuc(a1-2)Gal(b1-3)GlcNAc
# Summary of the method: as §1
# [9] = target: Fuc(a1-2)Gal(b1-3)GlcNAc(b1-2)Man(a1-3)[Fuc(a1-2)Gal(b1-3)GlcNAc(b1-2)Man(a1-6)]Man(b1-4)GlcNAc(b1-4)GlcNAc
# Summary of the method: as §1
# [10] = target: Fuc(a1-2)Gal(b1-3)GlcNAc(b1-2)Man(a1-3)[Fuc(a1-2)Gal(b1-3)GlcNAc(b1-2)Man(a1-6)]Man(b1-4)GlcNAc(b1-4)[Fuc(a1-6)]GlcNAc
# Summary of the method: as §1
# [11] = target: Fuc(a1-2)Gal(b1-3)GlcNAc(b1-3)Gal(b1-4)Glc
# Summary of the method: as §1
# [12] = target: Fuc(a1-2)Gal(b1-3)GlcNAc(b1-3)GalNAc
# Summary of the method: as §1
# [13] = target: Fuc(a1-2)Gal(b1-3)GlcNAc(b1-3)[Fuc(a1-2)Gal(b1-3)GlcNAc(b1-6)]GalNAc
# Summary of the method: as §1
# [14] = target: Fuc(a1-2)Gal(b1-3)GlcNAc(b1-3)[Gal(b1-4)GlcNAc(b1-6)]Gal(b1-4)Glc
# Summary of the method: as §1
# [15] = target: Fuc(a1-2)Gal(b1-3)GlcNAc(b1-3)[Neu5Ac(a2-6)Gal(b1-4)GlcNAc(b1-6)]Gal(b1-4)Glc
# Summary of the method: as §1
# [16] = target: Fuc(a1-2)Gal(b1-3)GlcNAc6S
# Summary of the method: as §1
# [17] = target: Fuc(a1-2)Gal(b1-3)[Fuc(a1-4)]GlcNAc
# Summary of the method: as §1
# [18] = target: Fuc(a1-2)Gal(b1-3)[Fuc(a1-4)]GlcNAc(b1-2)Man(a1-3)[Fuc(a1-2)Gal(b1-3)[Fuc(a1-4)]GlcNAc(b1-2)Man(a1-3)]Man(b1-4)GlcNAc(b1-4)GlcNAc
# Summary of the method: as §1
# [19] = target: Fuc(a1-2)Gal(b1-3)[Fuc(a1-4)]GlcNAc(b1-2)Man(a1-3)[Fuc(a1-2)Gal(b1-3)[Fuc(a1-4)]GlcNAc(b1-2)Man(a1-6)]Man(b1-4)GlcNAc(b1-4)[Fuc(a1-6)]GlcNAc(b1-4)[Fuc(a1-6)]GlcNAc
# Summary of the method: as §1
# [20] = target: Fuc(a1-2)Gal(b1-3)[Fuc(a1-4)]GlcNAc(b1-3)[Fuc(a1-3)[Gal(b1-4)]GlcNAc(b1-6)]Gal(b1-4)Glc
# Summary of the method: as §1
# [21] = target: Fuc(a1-2)Gal(b1-3)[Fuc(a1-4)]GlcNAc(b1-3)[Gal(b1-4)GlcNAc(b1-6)]Gal(b1-4)Glc
# Summary of the method: as §1
# [22] = target: Fuc(a1-2)Gal(b1-4)Glc
# Summary of the method: as §1
# [23] = target: Fuc(a1-2)Gal(b1-4)Glc6S
# Summary of the method: as §1
# [24] = target: Fuc(a1-2)Gal(b1-4)GlcNAc
# Summary of the method: as §1
# [25] = target: Fuc(a1-2)Gal(b1-4)GlcNAc(b1-2)Man
# Summary of the method: as §1
# [26] = target: Fuc(a1-2)Gal(b1-4)GlcNAc(b1-2)Man(a1-3)[Fuc(a1-2)Gal(b1-4)GlcNAc(b1-2)Man(a1-6)]Man(b1-4)GlcNAc(b1-4)GlcNAc
# Summary of the method: as §1
# [27] = target: Fuc(a1-2)Gal(b1-4)GlcNAc(b1-2)Man(a1-3)[Fuc(a1-2)Gal(b1-4)GlcNAc(b1-2)Man(a1-6)]Man(b1-4)GlcNAc(b1-4)[Fuc(a1-6)]GlcNAc
# Summary of the method: as §1
# [28] = target: Fuc(a1-2)Gal(b1-4)GlcNAc(b1-2)[Fuc(a1-2)Gal(b1-4)GlcNAc(b1-4)]Man(a1-3)[Fuc(a1-2)Gal(b1-4)GlcNAc(b1-2)Man(a1-6)]Man(b1-4)GlcNAc(b1-4)GlcNAc
# Summary of the method: as §1
# [29] = target: Fuc(a1-2)Gal(b1-4)GlcNAc(b1-3)Gal(b1-4)GlcNAc
# Summary of the method: as §1
# [30] = target: Fuc(a1-2)Gal(b1-4)GlcNAc(b1-3)Gal(b1-4)GlcNAc(b1-2)Man(a1-3)[Fuc(a1-2)Gal(b1-4)GlcNAc(b1-3)Gal(b1-4)GlcNAc(b1-2)Man(a1-6)]Man(b1-4)GlcNAc(b1-4)GlcNAc
# Summary of the method: as §1
binder,measurement,setting,value
B1,glycan array binding signal (z-score),[1],-0.108
same,glycan array binding signal (z-score),[2],-0.298
same,glycan array binding signal (z-score),[3],-0.182
same,glycan array binding signal (z-score),[4],-0.223
same,glycan array binding signal (z-score),[5],0.382
same,glycan array binding signal (z-score),[6],-0.362
same,glycan array binding signal (z-score),[7],0.028
same,glycan array binding signal (z-score),[8],-0.107
same,glycan array binding signal (z-score),[9],0.144
same,glycan array binding signal (z-score),[10],0.027
same,glycan array binding signal (z-score),[11],-0.191
same,glycan array binding signal (z-score),[12],-0.08
same,glycan array binding signal (z-score),[13],-0.15
same,glycan array binding signal (z-score),[14],-0.18
same,glycan array binding signal (z-score),[15],-0.05
same,glycan array binding signal (z-score),[16],0.236
same,glycan array binding signal (z-score),[17],-0.275
same,glycan array binding signal (z-score),[18],0.077
same,glycan array binding signal (z-score),[19],0.042
same,glycan array binding signal (z-score),[20],-0.349
same,glycan array binding signal (z-score),[21],-0.191
same,glycan array binding signal (z-score),[22],-0.076
same,glycan array binding signal (z-score),[23],0.03
same,glycan array binding signal (z-score),[24],-0.195
same,glycan array binding signal (z-score),[25],-0.195
same,glycan array binding signal (z-score),[26],-0.183
same,glycan array binding signal (z-score),[27],0.402
same,glycan array binding signal (z-score),[28],-0.105
same,glycan array binding signal (z-score),[29],-0.015
same,glycan array binding signal (z-score),[30],0.006
